{"source": "PubChem BioAssay AID504832", "about": "(National Center for Advancing Translational Sciences (NCATS), 2011)", "note": "Screen size: about 310,000 compounds; about 18,000 (5.8%) were called active. This list was built around the results that the source calls inconclusive (neither active nor inactive); the mix of calls is not that of the screen. The call rests on the fitted dose curve; in most records, active means well fitted inhibition curve with a large enough effect; inconclusive means small, poorly fitted or top-dose-only effect, or another doubt; inactive means no such curve, though single readings can be large or run the other way. No potency is given beside an inconclusive call; the fits are too rough. Potency means the concentration at half of the fitted maximal effect; tags describe the fitted curve by direction and shape."}
{"test": "Primary qHTS for delayed death inhibitors of the malarial parasite plastid, 48 hour incubation", "settings": "P. falciparum luciferase growth in erythrocytes; series mostly up to 28.7 µM", "how_it_was_run": "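Read-out is firefly luciferase luminescence from an integrated reporter in P. falciparum, so falling signal marks reduced parasite growth. Infected erythrocytes were at 2% hematocrit and 0.1% parasitemia (final) in Albumax-supplemented RPMI 1640.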"}
{"compound": "COc1cc(NC(=O)Cc2ccc(S(=O)(=O)N3CCOCC3)s2)c(OC)cc1Cl", "Potency": "inconclusive [inhibitor, single point]"}
{"compound": "O=S(=O)(NC1CC1)c1ccc(S(=O)(=O)N2CCCC(c3nc(-c4cccnc4)no3)C2)cc1", "note": "(stereo not drawn)", "Potency": "inconclusive [inhibitor, single point]"}
{"compound": "CCCn1c(N)c(C(=S)NC(=O)C2CC2)c(=O)n(C)c1=O", "Potency": "inactive"}
{"compound": "O=C1C=C(c2ccc(Oc3ccccc3)cc2)C[C@@H](c2ccc(Cl)cc2)C1", "Potency": "inconclusive [inhibitor, single point]"}
{"compound": "CCn1c(NC(=O)c2cccc(Cn3cc(Cl)cn3)c2)nc2ccccc21", "Potency": "active: 10.4 µM"}
{"compound": "Cc1ccc(OCCOc2ccc(Cl)cc2Cl)c([N+](=O)[O-])n1", "Potency": "inactive"}
{"compound": "CCC(C)NCC(=O)Nc1ccc([N+](=O)[O-])cc1C(=O)Nc1ccccc1F", "note": "(stereo not drawn)", "Potency": "inconclusive [inhibitor, partial curve, poor fit]"}
{"compound": "S=c1[nH]nc(C23CC4CC(CC(C4)C2)C3)n1Cc1ccco1", "Potency": "inconclusive [inhibitor, partial curve, poor fit]"}
{"compound": "Cc1nnc2sc(SCc3ccc(Cl)cc3)nn2c1=O", "Potency": "inconclusive [inhibitor, full curve]"}
{"compound": "O=S(=O)(c1ccc2c(c1)OCCO2)N1CCC(n2nnc3cc(F)ccc32)CC1", "Potency": "inconclusive [inhibitor, partial curve, poor fit]"}
{"compound": "COc1ccc(N2CCN(C(=O)CCC(=O)c3cc(C)sc3C)CC2)cc1", "Potency": "inactive"}
{"compound": "CCOC(=O)c1cn2nc(OP(=S)(OCC)OCC)cc2nc1C", "Potency": "inconclusive [inhibitor, single point]"}
{"compound": "COC(=O)C1=C(c2ccc(C(C)=O)cc2)C[C@@H]2CC[C@H]1N2C(=O)NC1Cc2ccccc2C1", "Potency": "inconclusive [inhibitor, single point]"}
{"compound": "O=C(CC1CCCC1)N1CCN(S(=O)(=O)c2ccccc2)CC1", "Potency": "inconclusive [inhibitor, single point]"}
{"compound": "CCNS(=O)(=O)c1c(C)cc(C)c(N(C)S(=O)(=O)c2ccccc2)c1C", "Potency": "inconclusive [inhibitor, full curve, poor fit]"}
{"compound": "Cc1ccc(S(=O)(=O)N(C)c2ccc(C(=O)NCC(c3cccs3)N3CCOCC3)cc2)cc1", "note": "(stereo not drawn)", "Potency": "inconclusive [inhibitor, partial curve, poor fit]"}
{"compound": "N#CC1=C(N)Oc2c(ccc3cccnc23)C1c1cccnc1", "note": "(stereo not drawn)", "Potency": "inconclusive [inhibitor, single point]"}
{"compound": "O=C(O)c1c(-c2ccccc2)c2oc3ccccc3c2[nH]c1=O", "Potency": "inconclusive [inhibitor, full curve, poor fit]"}
{"compound": "COc1ccc(NC(=O)Cn2nnc(C(=O)Nc3ccc(F)c(Cl)c3)c2N)cc1", "Potency": "inactive"}
{"compound": "O=C(N/N=C/c1ccccc1C(=O)O)c1cc(-c2ccc3c4c(cccc24)CC3)n[nH]1", "Potency": "inconclusive [inhibitor, single point]"}
{"compound": "COc1ccc(C(C(=O)NC2CCCCC2)N(Cc2cccs2)C(=O)Cc2c[nH]c3ccccc23)cc1", "note": "(stereo not drawn)", "Potency": "inconclusive [inhibitor, single point]"}
{"compound": "Cc1ccc(C2=Nc3ccc(Br)cc3C(c3ccncc3)=NN2)cc1", "Potency": "inconclusive [inhibitor, single point]"}
{"compound": "COc1ccc(CN2CCNC(=O)C2CC(=O)NCc2csc(C(C)C)n2)c(OC)c1", "note": "(stereo not drawn)", "Potency": "inconclusive [inhibitor, partial curve, poor fit]"}
{"compound": "COc1ccc(OCCCC(=O)Nc2cc(Cl)ccc2-n2cncn2)cc1", "Potency": "inconclusive [inhibitor, single point]"}
{"compound": "CN(c1ccccc1)c1nc2ccsc2c(=O)s1", "Potency": "inactive"}
{"compound": "S=C(c1ccc[nH]1)N1CCOCC1", "Potency": "inactive"}
{"compound": "CCN(CC(=O)Nc1c(F)cccc1F)C(=O)CCN1C(=O)c2cccc([N+](=O)[O-])c2C1=O", "Potency": "inactive"}
{"compound": "COc1cccc(CN2CCNC(=O)C2CC(=O)NCCn2nc(C)cc2C)c1OC", "note": "(stereo not drawn)", "Potency": "inactive"}
{"compound": "Cc1c(C(=O)Nc2cccc(-c3nnc4n3CCCCC4)c2)oc2ccccc12", "Potency": "inconclusive [inhibitor, single point]"}
{"compound": "COC(=O)C1=CN(Cc2ccc(OC)cc2)C=C(C(=O)OC)C1c1cccs1", "Potency": "inconclusive [inhibitor, partial curve, poor fit]"}
{"compound": "O=C(OCC(=O)C12CC3CC(CC(C3)C1)C2)c1cnccn1", "Potency": "inactive"}
{"compound": "COc1ccc2c(/C=N/Nc3ccc(C(=O)O)cc3)c[nH]c2c1", "Potency": "inactive"}
{"compound": "Cc1ccc2nc(N3CCN(Cc4nnnn4Cc4ccccc4)CC3)c(C#N)cc2c1", "Potency": "inconclusive [inhibitor, single point]"}
{"compound": "c1ccc2c(NC3CCCC3)nnc(NC3CCCC3)c2c1", "Potency": "inconclusive [inhibitor, partial curve]"}
{"compound": "C=CCNC(=S)N(CC)c1cccc2ccccc12", "Potency": "inconclusive [inhibitor, partial curve, poor fit]"}
{"compound": "CCOC(=O)c1[nH]c2ccc(F)cc2c1NC(=O)CN1CCN(C/C=C/c2ccccc2)CC1", "Potency": "active: 9.28 µM"}
{"compound": "CCc1cccc(NC(=O)COC(=O)c2cc(=O)c3ccccc3o2)c1", "Potency": "inactive"}
{"compound": "CC1(C)Cc2ccccc2-c2nnc(SCc3ccccc3)n21", "Potency": "inconclusive [inhibitor, single point]"}
{"compound": "COc1ccccc1-c1nc2ccccc2nc1-c1ccccc1OC", "Potency": "inconclusive [inhibitor, partial curve, poor fit]"}
{"compound": "CCOC(=O)C1CCCN(C(=O)c2cc3ncc(Br)cn3n2)C1", "note": "(stereo not drawn)", "Potency": "inactive"}
{"compound": "CC(C)Cn1c(SCC(=O)NCc2ccc(Cl)cc2)nnc1-c1cccc(S(=O)(=O)N2CCOCC2)c1", "Potency": "inconclusive [inhibitor, single point]"}
{"compound": "O=C(O)c1ccc(C2CCCCC2)cn1", "Potency": "inconclusive [inhibitor, single point]"}
{"compound": "CCc1c(O)nc(SCC(=O)Nc2ccccc2C)n(-c2ccc(C)cc2)c1=O", "Potency": "inactive"}
